# Measurements: PubChem BioAssay (Tox21)
# “And” between values parts separate entries of the source, which are not always exact repeats. Identical values can stand only once. Inconclusive means that the source gave no clear call. Such entries were picked first, then a sample of the others. For some of these results: Where the call is inconclusive, the potency comes from a doubtful curve fit. A structure can be active in one record and inactive in another. The source made the active and inactive calls. Unless noted, calls come from the whole dose curve; as a rule, active = well fitted curve in the direction sought with a large enough effect in the repeat runs; inconclusive = weak or mixed curves; inactive = no such curve, though single readings can be large; an effect the other way counts as inactive or inconclusive.
# Tests used:
# [1] = qHTS assay to identify small molecule antagonists of the thyroid receptor (TR) signaling pathway - cell viability counter screen (AID 743064); conditions: GH3.TRE-Luc viability, CellTiter-Fluor, 24 h; activity change, negative = cytotoxic: at 70.3 µM (top of the series) unless noted; note: nearly all actives have a fitted effect of over 50% in size; note: potency is the fitted concentration of half-maximal effect; for activity change, negative = cytotoxic: % is set by controls: 0 for no effect and ±100 for the full control effect
# In short: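 Compounds were tested on GH3.TRE-Luc cells in the presence of T3 at 1 nM final. Following 23.5 h at 37 °C, cell viability was quantified by CellTiter-Fluor.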
# [2] = qHTS assay to identify small molecule antagonists of the estrogen receptor alpha (ER-alpha) signaling pathway - cell viability counter screen (AID 743074; calls by dose curve;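 note: HEK293 cells carrying ER-alpha-UAS-bla reporter stimulated with 17beta-estradiol; nearly all actives have a fitted effect of over 45% in size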; note: potency is the fitted concentration of half-maximal effect; for activity, negative = cytotoxicity: % is set by controls: 0 for no effect and ±100 for the full control effect)
# [3] = target: Peroxisome proliferator-activated receptor gamma (Homo sapiens) (UniProt P37231); test: qHTS assay to identify small molecule antagonists of the peroxisome proliferator-activated receptor gamma (PPARg) signaling pathway (AID 743191; calls by dose curve; note: % is set by controls: 0 for no effect and ±100 for the full control effect; nearly all actives have a fitted effect of over 30% in size); conditions: HEK293H PPARg-UAS-bla, beta-lactamase ratio, antagonist, 17 h; ratio activity, negative = inhibition: at 62.6 µM (top of the series) unless noted
# Sequence of UniProt P37231 (P37231 whole entry, looked up): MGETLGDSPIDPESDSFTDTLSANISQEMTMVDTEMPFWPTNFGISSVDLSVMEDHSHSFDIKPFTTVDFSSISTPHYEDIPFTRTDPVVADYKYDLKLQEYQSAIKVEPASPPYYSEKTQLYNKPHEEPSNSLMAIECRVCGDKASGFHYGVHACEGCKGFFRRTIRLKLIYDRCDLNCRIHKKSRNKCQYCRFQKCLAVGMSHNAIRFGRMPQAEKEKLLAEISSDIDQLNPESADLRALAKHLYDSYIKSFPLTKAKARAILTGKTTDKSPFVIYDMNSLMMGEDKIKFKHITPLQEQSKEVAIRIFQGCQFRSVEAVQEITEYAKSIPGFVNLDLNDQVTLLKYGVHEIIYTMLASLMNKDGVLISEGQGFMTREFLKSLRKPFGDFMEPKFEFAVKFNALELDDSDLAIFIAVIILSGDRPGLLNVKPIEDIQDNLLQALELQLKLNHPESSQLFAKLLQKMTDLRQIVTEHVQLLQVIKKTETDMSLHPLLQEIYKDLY
# In short: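 GeneBLAzer PPARg UAS-bla HEK293H cells carrying a UAS-driven beta-lactamase reporter were plated at 3000 cells/well, preincubated 5 h at 37C, then given compound for 17 h at 37C; LiveBLAzer B/G FRET substrate was read after 1 h at room temperature.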
# [4] = qHTS assay to identify small molecule agonists of the farnesoid-X-receptor (FXR) signaling pathway - cell viability counter screen (AID 743218); conditions: FXR-bla HEK293T viability, CellTiter-Glo luminescence, 16 h; viability change, negative = cytotoxic: at 62.6 µM (top of the series); note: nearly all actives have a fitted effect of over 45% in size; note: potency is the fitted concentration of half-maximal effect
# In short: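 In GeneBLAzer FXR-UAS-bla HEK 293T cells, compounds act for 16 h at 37 C. Cell viability is then scored in the reporter wells by CellTiter-Glo, 30 min at RT, luminescence.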
# [5] = target: Vitamin D3 receptor (Homo sapiens) (UniProt P11473); test: qHTS assay to identify small molecule antagonists of the vitamin D receptor (VDR) signaling pathway (AID 743223; active = well fitted inhibition curve with a large enough effect in the signal ratio in the repeat runs, not every such curve was filed as active; inconclusive = weak or mixed curves, or effect the other way; inactive = no such curve, though single readings can be large or run the other way; the % refers to the signal ratio; note: potency is the fitted concentration of half-maximal effect; for activity change, negative = inhibition: % is set by controls: 0 for no effect and ±100 for the full control effect); conditions: VDR-UAS-bla HEK293T, beta-lactamase FRET ratio, 16 h; activity change, negative = inhibition: at 61 µM (top of the series) unless noted
# Sequence of UniProt P11473 (P11473 whole entry, looked up): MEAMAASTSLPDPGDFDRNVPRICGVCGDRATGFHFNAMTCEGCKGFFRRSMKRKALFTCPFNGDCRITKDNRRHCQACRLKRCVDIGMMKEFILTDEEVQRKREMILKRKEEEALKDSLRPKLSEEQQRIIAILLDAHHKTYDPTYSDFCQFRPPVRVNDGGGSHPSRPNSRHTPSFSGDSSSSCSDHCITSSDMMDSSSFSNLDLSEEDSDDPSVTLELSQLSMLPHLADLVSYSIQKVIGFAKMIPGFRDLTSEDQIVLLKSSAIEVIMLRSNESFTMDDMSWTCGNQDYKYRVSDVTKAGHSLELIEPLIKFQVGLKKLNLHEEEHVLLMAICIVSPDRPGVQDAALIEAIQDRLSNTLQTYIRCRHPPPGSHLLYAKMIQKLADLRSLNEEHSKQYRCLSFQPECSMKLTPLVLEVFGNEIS
# In short: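 Agonist 1alpha,25-dihydroxyvitamin D3 (3 nM in well) was added with each compound to VDR-bla cells preincubated 4 h. Cells stood 16 h at 37C, then FRET substrate 2 h at room temperature; fluorescence intensity recorded.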
# [6] = qHTS assay to identify small molecule agonists of the AP-1 signaling pathway (AID 1159526; calls by dose curve; note: potency is the fitted concentration of half-maximal effect); conditions: ME-180 (cervical carcinoma) AP-1-bla reporter, beta-lactamase FRET ratio, 5 h; activation: at 76.8 µM (top of the series) unless noted
# [7] = target: Retinoic acid receptor RXR-alpha (Homo sapiens) (UniProt P19793); test: qHTS assay to identify small molecule agonists of the RXR signaling pathway (AID 1159527; calls by dose curve; note: nearly all actives have a fitted effect of over 35% in size; note: potency is the fitted concentration of half-maximal effect); conditions: HEK293T RXRa-UAS-bla, beta-lactamase ratio, 16 h; activation: at 76.8 µM (top of the series) unless noted
# Sequence of UniProt P19793 (P19793 whole entry, looked up): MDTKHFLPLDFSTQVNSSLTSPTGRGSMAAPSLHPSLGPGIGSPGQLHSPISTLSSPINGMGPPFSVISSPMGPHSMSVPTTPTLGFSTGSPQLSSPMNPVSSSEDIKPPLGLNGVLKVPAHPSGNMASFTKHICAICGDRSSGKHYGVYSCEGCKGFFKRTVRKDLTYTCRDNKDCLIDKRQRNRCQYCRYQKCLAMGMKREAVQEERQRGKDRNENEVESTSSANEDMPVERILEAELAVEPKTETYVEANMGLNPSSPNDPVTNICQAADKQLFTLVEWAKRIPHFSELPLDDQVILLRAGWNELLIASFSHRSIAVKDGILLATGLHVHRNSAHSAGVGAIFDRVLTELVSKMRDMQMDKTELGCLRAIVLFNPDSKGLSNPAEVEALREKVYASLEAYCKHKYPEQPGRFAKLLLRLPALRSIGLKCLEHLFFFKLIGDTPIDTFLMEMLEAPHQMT
# In short: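 Beta-lactamase reporter assay, agonist format. Engineered HEK 293T line, charcoal-stripped FBS at 2%, overnight (16 hr) exposure, fluorescence at 460 and 530 nm after 405 nm excitation.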
# [8] = target: Progesterone receptor (Homo sapiens) (UniProt P06401); test: qHTS assay to identify small molecule antagonists of the progesterone receptor (PR) signaling pathway (AID 1346795; active = well fitted inhibition curve with a large enough effect in the signal ratio in the repeat runs, not every such curve was filed as active; inconclusive = weak or mixed curves; the % refers to the signal ratio; note: potency is the fitted concentration of half-maximal effect); conditions: PR-UAS-bla HEK293T, beta-lactamase FRET ratio, 16 h; activity change, negative = inhibition: at 92.4 µM (top of the series) unless noted
# Sequence of UniProt P06401 (P06401 whole entry, looked up): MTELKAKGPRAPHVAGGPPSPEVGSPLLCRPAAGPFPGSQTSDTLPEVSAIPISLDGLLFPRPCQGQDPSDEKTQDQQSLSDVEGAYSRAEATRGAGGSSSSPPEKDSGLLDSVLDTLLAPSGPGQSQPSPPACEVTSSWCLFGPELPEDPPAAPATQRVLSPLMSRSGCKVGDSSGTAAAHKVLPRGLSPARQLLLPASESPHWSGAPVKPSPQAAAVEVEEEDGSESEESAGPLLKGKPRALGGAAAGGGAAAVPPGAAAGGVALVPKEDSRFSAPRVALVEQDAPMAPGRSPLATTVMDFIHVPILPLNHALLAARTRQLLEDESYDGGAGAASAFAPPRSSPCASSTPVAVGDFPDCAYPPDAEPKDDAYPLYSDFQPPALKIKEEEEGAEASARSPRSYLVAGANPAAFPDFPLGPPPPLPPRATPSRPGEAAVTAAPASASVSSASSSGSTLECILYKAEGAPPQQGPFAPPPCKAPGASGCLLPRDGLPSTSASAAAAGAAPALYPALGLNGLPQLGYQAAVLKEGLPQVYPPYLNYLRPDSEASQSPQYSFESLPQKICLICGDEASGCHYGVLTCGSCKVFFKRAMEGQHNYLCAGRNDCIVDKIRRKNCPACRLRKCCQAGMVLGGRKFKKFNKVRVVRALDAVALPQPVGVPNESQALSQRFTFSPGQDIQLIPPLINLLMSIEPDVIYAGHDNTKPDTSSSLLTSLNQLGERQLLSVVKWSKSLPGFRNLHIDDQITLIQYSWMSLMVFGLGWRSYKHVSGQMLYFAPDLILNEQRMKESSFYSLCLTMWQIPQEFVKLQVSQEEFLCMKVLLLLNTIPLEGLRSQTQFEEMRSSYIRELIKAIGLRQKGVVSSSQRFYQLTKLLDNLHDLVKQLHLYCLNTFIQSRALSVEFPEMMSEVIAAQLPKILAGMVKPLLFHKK
# In short: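 Screening used a GripTite HEK293T line with PR-responsive UAS-beta-lactamase. Cells were challenged with compound in the presence of 1 nM R5020 final for 16 hr at 37C; B/G FRET substrate, 2 hr room temperature, fluorescence.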
# [9] = qHTS assay for identifying genotoxic compounds that show differential cytotoxicity against isogenic chicken DT40 cell lines with known DNA damage response pathways - wild type cell line (AID 743012); conditions: DT40 wild type chicken cells viability, CellTiter-Glo, 40 h; activity change, negative = cytotoxicity: at 68.4 µM (top of the series) unless noted; note: nearly all actives have a fitted effect of over 60% in size; note: potency is the fitted concentration of half-maximal effect
# In short: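 Quantitative HTS on parental DT40 cells: 40 h compound treatment at 37 C/5% CO2, with viability then determined by CellTiter-Glo luminescence. Values serve as the DNA repair-proficient reference for differential cytotoxicity.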
# [10] = qHTS assay for small molecule agonists of the antioxidant response element (ARE) signaling pathway (AID 743202; active = well fitted activation curve with a large enough effect in the signal ratio in the repeat runs, not every such curve was filed as active; inconclusive = weak or mixed curves, or effect the other way; inactive = no such curve, though single readings can be large or run the other way; the % refers to the signal ratio; note: potency is the fitted concentration of half-maximal effect); conditions: HepG2 ARE-bla reporter, beta-lactamase FRET, 16 h; activation: at 73.3 µM (top of the series) unless noted
# In short: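 Read-out: LiveBLAzer B/G FRET substrate fluorescence after 2 h at room temperature, following 16 h compound treatment at 37 C of HepG2 cells carrying an ARE-driven beta-lactamase reporter.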
# [11] = qHTS assay to identify small molecule agonists of the RXR signaling pathway - cell viability counter screen (AID 1159529); note: nearly all actives have a fitted effect of over 50% in size; note: potency is the fitted concentration of half-maximal effect
# In short: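 Same-well viability check after the LiveBLAzer FRET read: CellTiter-Glo added, luminescence measured after 30 min at room temperature. Reporter HEK 293T cells had been treated with compounds for 16 hr following a 5 hr preincubation.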
# [12] = target: Cytochrome P450 2C19 (Homo sapiens) (UniProt P33261); test: Cytochrome P450 Family 2 Subfamily C Member 19 (CYP2C19) small molecule antagonists: luciferase reporter qHTS assay (AID 1671197); note: potency is the fitted concentration of half-maximal effect; nearly all actives have a fitted effect of over 65% in size
# Sequence of UniProt P33261 (P33261 whole entry, looked up): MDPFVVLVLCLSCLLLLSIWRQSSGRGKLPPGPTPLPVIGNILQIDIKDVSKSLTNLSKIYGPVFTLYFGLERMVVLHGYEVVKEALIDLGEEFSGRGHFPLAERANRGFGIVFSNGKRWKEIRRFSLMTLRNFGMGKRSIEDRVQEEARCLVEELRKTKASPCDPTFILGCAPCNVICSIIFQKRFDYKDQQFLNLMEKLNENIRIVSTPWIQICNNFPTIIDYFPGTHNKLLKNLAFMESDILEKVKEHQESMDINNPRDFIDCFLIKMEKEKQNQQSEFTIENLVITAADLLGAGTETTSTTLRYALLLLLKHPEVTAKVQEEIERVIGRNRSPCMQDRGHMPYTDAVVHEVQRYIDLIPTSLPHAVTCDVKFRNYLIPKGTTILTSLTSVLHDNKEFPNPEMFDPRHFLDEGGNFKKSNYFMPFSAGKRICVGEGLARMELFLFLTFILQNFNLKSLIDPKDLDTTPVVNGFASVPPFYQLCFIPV
# In short: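 Light output is proportional to CYP2C19 activity: proluciferin substrate is converted to luciferin, then detected by a luciferin detection reagent that also stops the 1 h, 37C NADPH-driven reaction. Ketoconazole serves as positive control.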
# [13] = target: Cytochrome P450 2C9 (Homo sapiens) (UniProt P11712); test: Cytochrome P450 Family 2 Subfamily C Member 9 (CYP2C9) small molecule antagonists: luciferase reporter qHTS assay (AID 1671198); note: nearly all actives have a fitted effect of over 50% in size; note: potency is the fitted concentration of half-maximal effect
# Sequence of UniProt P11712 (P11712 whole entry, looked up): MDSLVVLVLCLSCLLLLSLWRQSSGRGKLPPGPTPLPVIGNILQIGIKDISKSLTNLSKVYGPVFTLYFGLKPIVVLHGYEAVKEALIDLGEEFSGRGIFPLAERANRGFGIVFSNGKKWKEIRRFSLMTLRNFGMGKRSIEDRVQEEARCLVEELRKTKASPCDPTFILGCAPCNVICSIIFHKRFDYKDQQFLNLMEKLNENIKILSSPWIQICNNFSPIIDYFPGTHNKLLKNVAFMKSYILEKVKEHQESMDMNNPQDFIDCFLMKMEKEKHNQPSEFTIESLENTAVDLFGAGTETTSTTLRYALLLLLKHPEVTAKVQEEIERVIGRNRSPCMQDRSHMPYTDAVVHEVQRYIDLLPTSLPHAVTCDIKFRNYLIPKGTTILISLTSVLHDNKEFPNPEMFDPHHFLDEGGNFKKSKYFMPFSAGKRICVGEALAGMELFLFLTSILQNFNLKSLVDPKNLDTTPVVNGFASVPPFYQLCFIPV
# In short: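 CYP2C9 activity was measured with a P450-Glo proluciferin substrate. Enzyme–substrate mix was held with compound for 10 min at room temperature, then NADPH regeneration solution was added for 1 h at 37C. Luciferin product was read as luminescence.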
# [14] = target: Cytochrome P450 1A2 (Homo sapiens) (UniProt P05177); test: Cytochrome P450 Family 1 Subfamily A Member 2 (CYP1A2) small molecule antagonists: luciferase reporter qHTS assay (AID 1671199); note: nearly all actives have a fitted effect of over 50% in size; note: potency is the fitted concentration of half-maximal effect
# Sequence of UniProt P05177 (P05177 whole entry, looked up): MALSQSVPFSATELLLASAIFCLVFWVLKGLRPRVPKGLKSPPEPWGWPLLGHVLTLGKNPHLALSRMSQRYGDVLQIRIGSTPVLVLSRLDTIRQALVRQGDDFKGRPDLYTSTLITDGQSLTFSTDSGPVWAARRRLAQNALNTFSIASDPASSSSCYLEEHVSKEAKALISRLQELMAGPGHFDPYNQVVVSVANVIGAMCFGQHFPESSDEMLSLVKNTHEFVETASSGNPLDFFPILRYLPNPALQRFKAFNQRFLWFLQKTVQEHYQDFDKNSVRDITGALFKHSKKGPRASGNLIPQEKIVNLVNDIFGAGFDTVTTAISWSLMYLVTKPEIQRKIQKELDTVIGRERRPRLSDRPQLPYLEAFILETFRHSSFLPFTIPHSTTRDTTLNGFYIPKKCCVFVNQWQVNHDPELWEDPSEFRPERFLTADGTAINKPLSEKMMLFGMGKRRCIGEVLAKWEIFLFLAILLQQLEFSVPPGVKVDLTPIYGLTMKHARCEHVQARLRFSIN
# In short: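 Signal from luciferin formed by CYP1A2 from a proluciferin substrate is read as luminescence, expressed in relative luminescence units. Compounds sit with enzyme 10 min, NADPH-driven reaction runs 1 h, all at room temperature.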
# [15] = qHTS assay for small molecule disruptors of the mitochondrial membrane potential (AID 720635); conditions: HepG2 mitochondrial membrane potential, Mito-MPS dye ratio; ratio activity, negative = MMP loss: at 83.2 µM (top of the series) unless noted; note: potency is the fitted concentration of half-maximal effect
# In short: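 HepG2 cells (2,000/well) attached overnight at 37C, then took compound for 1 hr at 37C, 5% CO2. Mito-MPS dye was added for 30 min; fluorescence was read at 490/535 nm (monomers) and 540/590 nm (aggregates).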
# [16] = target: Glucocorticoid receptor (Homo sapiens) (UniProt P04150); test: qHTS assay to identify small molecule antagonists of the glucocorticoid receptor (GR) signaling pathway (AID 720692; active = well fitted inhibition curve with a large enough effect in the signal ratio in the repeat runs, not every such curve was filed as active; inconclusive = weak or mixed curves, or effect the other way; inactive = no such curve, though single readings can be large or run the other way; the % refers to the signal ratio; note: % is set by controls: 0 for no effect and ±100 for the full control effect); conditions: GR-bla HeLa, beta-lactamase FRET ratio, dexamethasone-stimulated, 18 h; activity change, negative = inhibition: at 58.5 µM (top of the series) unless noted
# Sequence of UniProt P04150 (P04150 whole entry, looked up): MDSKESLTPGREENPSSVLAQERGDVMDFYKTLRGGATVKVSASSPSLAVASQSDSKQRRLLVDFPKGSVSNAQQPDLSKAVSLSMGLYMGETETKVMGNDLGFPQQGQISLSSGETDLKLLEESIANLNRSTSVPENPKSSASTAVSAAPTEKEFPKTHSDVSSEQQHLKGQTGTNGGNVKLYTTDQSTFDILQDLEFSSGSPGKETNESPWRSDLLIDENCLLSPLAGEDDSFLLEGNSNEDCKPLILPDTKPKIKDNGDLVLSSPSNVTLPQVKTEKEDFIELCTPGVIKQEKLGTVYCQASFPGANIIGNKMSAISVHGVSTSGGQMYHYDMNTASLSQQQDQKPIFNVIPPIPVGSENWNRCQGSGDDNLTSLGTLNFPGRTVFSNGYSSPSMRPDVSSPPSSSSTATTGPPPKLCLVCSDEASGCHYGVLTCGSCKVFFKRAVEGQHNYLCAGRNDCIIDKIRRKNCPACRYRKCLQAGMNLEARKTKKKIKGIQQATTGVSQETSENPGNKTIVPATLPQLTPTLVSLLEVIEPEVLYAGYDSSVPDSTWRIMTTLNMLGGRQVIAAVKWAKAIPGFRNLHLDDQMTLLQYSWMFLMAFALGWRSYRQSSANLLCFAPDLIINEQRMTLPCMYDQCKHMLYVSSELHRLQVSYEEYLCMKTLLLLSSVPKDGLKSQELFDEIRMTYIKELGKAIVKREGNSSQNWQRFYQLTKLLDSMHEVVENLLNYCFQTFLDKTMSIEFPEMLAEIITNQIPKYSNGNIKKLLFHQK
# In short: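 Fluorescence from cleaved LiveBLAzer B/G FRET substrate reports GRE-driven beta-lactamase in HeLa cells; compounds are tested against 5 nM dexamethasone (final) over 18 h at 37 C, substrate incubation 2 h at room temperature.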
# [17] = qHTS assay for identifying genotoxic compounds that show differential cytotoxicity against isogenic chicken DT40 cell lines with known DNA damage response pathways - Rev3 mutant cell line (AID 743014); conditions: chicken DT40 Rev3-/- viability, CellTiter-Glo, 40 h; activity, negative = cytotoxicity: at 68.4 µM (top of the series); note: nearly all actives have a fitted effect of over 55% in size; note: potency is the fitted concentration of half-maximal effect
# [18] = qHTS assay to identify small molecule antagonists of the sonic hedgehog signaling (Shh) pathway (AID 1259369; calls by dose curve; note: potency is the fitted concentration of half-maximal effect; nearly all actives have a fitted effect of over 45% in size)
# In short: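 Screening used 3T3Gli1-Luc cells at 2,000 per well, compounds delivered in DMSO, and conditioned medium as agonist stimulus; plates incubated 24hr at 37 C and 5% CO2 before a 30min luciferase step.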
# [19] = target: Cytochrome P450 2D6 (Homo sapiens) (UniProt P10635); test: Cytochrome P450 Family 2 Subfamily D Member 6 (CYP2D6) small molecule antagonists: luciferase reporter qHTS assay (AID 1671196)
# In short: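 Inhibition of CYP2D6 was gauged by loss of luminescence, since light produced tracks the luciferin generated from a proluciferin substrate. A 10 min room-temperature preincubation preceded 1 h NADPH-supported turnover.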
# [20] = qHTS assay to identify small molecule agonists of the progesterone receptor (PR) signaling pathway - cell viability counter screen (AID 1346799; calls by dose curve; note: potency is the fitted concentration of half-maximal effect; nearly all actives have a fitted effect of over 45% in size)
# In short: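 Using the same plates as the PR reporter screen, HEK293T PR-UAS-bla cells received compounds for 16 hr at 37C and were then lysed with CellTiter-Glo; luminescence was read 30 min later at room temperature.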
# Tags give direction and shape of the fitted curve or compound fluorescence and quenching.
compound,measurement,setting,value
NNCCO,Potency,[1],inactive
same,Potency,[2],inactive
same,"ratio activity, negative = inhibition",[3],inconclusive: -9.38%
same,Potency,[4],"inconclusive: 21.9 µM [rising, partial curve, poor fit]"
same,"activity change, negative = inhibition",[5],inconclusive: 5.99%
same,Potency,[6],inactive
same,Potency,[7],inactive
same,Potency,[8],"inconclusive: 0.243 µM [rising, full curve, poor fit]"
CCCCc1ccc(O)cc1,Potency,[9],inactive
same,Potency,[1],inactive
same,activation,[10],inconclusive: 12.9%
same,Potency,[6],"inconclusive: 61.6 µM [partial curve, poor fit]"
same,Potency,[11],inactive
same,Potency,[12],"inconclusive: 79.6 µM [inhibitor, partial curve, poor fit]"
same,Potency,[13],"inconclusive: 63.2 µM [inhibitor, partial curve, poor fit]"
same,Potency,[14],"inconclusive: 70.9 µM [inhibitor, partial curve]"
COc1cc(Cl)c(OC)cc1Cl,Potency,[15],"inconclusive: 7.7 µM [rising, full curve]"
same,Potency,[9],"inconclusive: 77 µM [cytotoxic, single point]"
same,Potency,[3],inactive
same,Potency,[4],inactive
same,"activity change, negative = inhibition",[5],inconclusive: -4.66%
same,activation,[6],inconclusive: -1.56%
same,Potency,[11],"inconclusive: 19.5 µM [rising, partial curve, poor fit]"
COC(=O)C1=CCCN(C)C1,Potency,[15],inactive
same,Potency,[16],inactive
same,Potency,[17],"inconclusive: 15 µM [rising, partial curve, poor fit]"
same,Potency,[1],inactive
same,"ratio activity, negative = inhibition",[3],inconclusive: 1.96%
same,Potency,[6],"inconclusive: 6.74 µM [activator, full curve, poor fit]"
same,Potency,[18],"inconclusive: 21.1 µM [inhibitor, partial curve, poor fit]"
same,Potency,[19],"inconclusive: 43.6 µM [inhibitor, partial curve, poor fit]"
same,Potency,[14],inactive
Brc1ccc(Br)cc1,Potency,[15],inactive
same,Potency,[9],inactive
same,Potency,[17],"inactive and inconclusive: 30.6 µM [cytotoxic, full curve, poor fit]"
same,Potency,[1],"inconclusive: 54.5 µM [rising, single point]"
same,Potency,[3],inactive
same,Potency,[10],inactive
same,"activity change, negative = inhibition",[5],inconclusive: 16.6%
same,Potency,[6],"inconclusive: 61.7 µM [activator, single point]"
same,Potency,[14],"inconclusive: 62.2 µM [inhibitor, partial curve] and inactive"
CCC(=O)C(CCN(C)C)(c1ccccc1)c1ccccc1,activation,[6],inconclusive: -6.54% [at 35.3 µM]
same,Potency,[18],"inconclusive: 0.266 µM [inhibitor, partial curve, poor fit]"
same,Potency,[13],inconclusive: 17.4 µM [inhibitor]
CCOC(=O)N(C)C(=O)CSP(=S)(OCC)OCC,"ratio activity, negative = MMP loss",[15],inconclusive: 22.7%
same,Potency,[17],"inconclusive: 48.6 µM [cytotoxic, partial curve, poor fit]"
same,Potency,[10],"inconclusive: 68.6 µM [rising, partial curve, poor fit]"
same,"activity change, negative = inhibition",[5],inconclusive: 26.2% [activator]
same,Potency,[6],inactive
same,Potency,[7],"inconclusive: 54.9 µM [fluorescent, partial curve, poor fit]"
OCC(O)CCl (stereo not given),Potency,[15],inactive
same,Potency,[1],"inconclusive: 1.72 µM [rising, single point]"
same,Potency,[2],"inconclusive: 24.5 µM [rising, full curve, poor fit]"
same,Potency,[6],inactive
same,activation,[7],inconclusive: 18.1%
same,Potency,[13],"inconclusive: 79.6 µM [inhibitor, partial curve, poor fit]"
same,Potency,[14],"inconclusive: 71 µM [inhibitor, partial curve, poor fit] and inconclusive: 63.3 µM [inhibitor, partial curve]"
N[C@@H](Cc1ccc(Oc2cc(I)c(O)c(I)c2)c(I)c1)C(=O)O,Potency,[17],inactive
same,"ratio activity, negative = inhibition",[3],inconclusive: -20%
same,Potency,[4],inactive
same,Potency,[6],inactive
same,Potency,[20],"inconclusive: 23.7 µM [rising, partial curve]"
same,Potency,[14],inactive
CCCOc1nn(C(=O)NS(=O)(=O)c2ccccc2C(=O)OC)c(=O)n1C,Potency,[16],inactive
same,Potency,[17],"inconclusive: 43.1 µM [cytotoxic, partial curve, poor fit]"
same,Potency,[2],"inconclusive: 54.7 µM [rising, partial curve, poor fit]"
same,Potency,[10],inactive
same,Potency,[4],"inconclusive: 0.0345 µM [rising, full curve, poor fit]"
same,Potency,[5],"inconclusive: 15.4 µM [activator, partial curve, poor fit]"
same,Potency,[6],inactive
same,Potency,[7],inactive
same,Potency,[13],"inconclusive: 39.8 µM [inhibitor, partial curve]"
O=C1CN2CCOC2(c2ccccc2Cl)c2cc(Cl)ccc2N1 (stereo not given),"ratio activity, negative = inhibition",[3],inconclusive: -12.2%
same,activation,[10],inconclusive: 15.3%
same,Potency,[6],"inconclusive: 15.1 µM [activator, partial curve, poor fit]"
same,Potency,[11],inactive
same,"activity change, negative = inhibition",[8],inconclusive: -38.6% [at 42.5 µM]
same,Potency,[12],active: 6.17 µM
same,Potency,[13],"inconclusive: 21.9 µM [inhibitor, partial curve, poor fit]"
c1ccc(C2CO2)cc1 (stereo not given),"activity change, negative = inhibition",[16],inconclusive: 8.44%
same,Potency,[9],inactive
same,Potency,[17],inactive
same,Potency,[6],inactive
same,Potency,[7],active: 17.4 µM
same,Potency,[13],inactive and active: 71 µM
